# According to the supplement of paper PMC10338343:
# ± gives the standard deviation. In all, about 3,700 sequences were measured (“pre-steady-state target cleavage rate”: median about 0.02, highest 2% from about 0.23 on). This is a selection; strong and weak results do not stand in their true shares.
# System: MILI (PIWIL2) piRISC loaded with Kctd7 piRNA (26 nt)
# Assay: pre-steady-state target cleavage rate (min^-1); MIWI and MILI are mouse PIWI proteins and EfPiwi is from a freshwater sponge; tags in brackets are library labels; higher = faster piRNA-guided slicing of the target
# Conditions: guide: Kctd7 piRNA 5'p-UGUUAAUCUCUCAGAGAAGGUGACAG; auxiliary factor: 500 nM mouse GTSF1
# Method: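 Cleave-'n-Seq: a library of target RNAs (target site embedded in constant flanks, ACAGCATTCCGCGTTAGTGATATCCG... 5' flank; DNA-blocked outside the site) at 0.1 nM was incubated with 1 nM active mouse MILI or MIWI piRISC (synthetic 5'-monophosphorylated piRNA guide) with or without 500 nM mouse GTSF1 at 33 °C for 1 min to 16 h. Uncleaved targets were sequenced and normalised to non-target controls, and the pooled three trials were fitted to a burst-and-steady-state model to give the pre-steady-state cleavage rate (min^-1; k3 is constrained to at most 1e-4). Sequence is the target site only; target names encode pairing extent (gX:gY) and contiguous / 1-mismatch / 2-mismatch / bulge geometry. Fits with R² ≤ 0 are excluded.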
row,Sequence,pre-steady-state target cleavage rate
1,UAGUGACAGUGCUUCUCUGAGAGAUAAACA,0.00446 ± 0.0028
2,UAGUGAGUCACCUUCUCUGUGAGUUUAACA,0.0267 ± 0.007
3,UAGUGACUCACCUUGUCUGUGAGAUUAACA,0.0255 ± 0.0057
4,UAGUGACACACGUUCUCUGAGAGAUUUACA,0.0612 ± 0.01
5,UAGUGACAGUGGAUCUCUGUGAGAUUAACA,< 0.0001
6,UAGUGACAGUCCUUCUCUGAGAGGUUAACA,0.0707 ± 0.009
7,UAGUGAGUCAGGAUCUCUGAGAGAUUAACA,0.029 ± 0.0043
8,UAGUCUGUCACCUUCACUGAGAGAUAAACA,0.116 ± 0.024
9,UAGUGAGUCACCUUCUGUGACAGAUUAACA,0.0506 ± 0.012
10,UAGUGAGUCACCUUCUCUCAGAGAUUAUGA,0.0141 ± 0.0066
11,UAGUGUGUCCCUUCUCUGAGAGAUUAACA,0.153 ± 0.016
12,UAGUGUGUCAGCUUCUCUGAGAGAUUAUGA,0.0157 ± 0.0056
13,UAGUCUGUCACCUUGUCUGAGUGAUUAACA,0.00524 ± 0.0025
14,UAGUGACACACCUUCUCUGAGAGAUUACCA,0.0859 ± 0.016
15,UAGUGACAGUGGAAAUCUGAGAGAUUAACA,0.00342 ± 0.001
16,UAGUGACUCACCUUCACUGACAGAUUAACA,0.0378 ± 0.0055
17,UAGUGACUCACCUGCUCUGAGAGAUUAACA,0.134 ± 0.013
18,UAGUCUGUCACCUUGUCAGAGAGAUUAACA,0.0486 ± 0.0086
19,UAGUCUGUCACCAUCUCUGAGUGAUUAACA,0.00551 ± 0.0028
20,UAGUGUGUCUCCUUCUGUGAGAGAUUAACA,0.12 ± 0.014
21,UAGUGACAGACCUUCUCUGAGAAAUUAACA,0.0522 ± 0.015
22,UAGUCUGUCACCUUCUCUGAGAGAUUAACG [g2:g26:cont:t1G],0.196 ± 0.011
23,UAGUGACAGUGCUUCACUGAGAGAUUAACA,0.0228 ± 0.0072
24,UAGUCUGUCACCUUCACUGAGAGAUUAUCA,0.118 ± 0.029

row,Sequence,pre-steady-state target cleavage rate
1,UAGUGACAGUCCUUCACUGAGAGAUUAACA,0.0713 ± 0.012
2,UAGUGACAGUGCUUCUCUGAGAGGAUUAACA,0.0129 ± 0.0041
3,UAGUGAGUCUACCUUCUCUGAGAGAUUAACA,0.0908 ± 0.013
4,UAGUGUGAUCACCUUCUCUGAGAGAUUAACA,0.24 ± 0.018
5,UAGUCUGUCACCUUCUCUGAGACGAUUAACA,0.0566 ± 0.0058
6,UAGUGACAGACCUUCUCUGAGAGACUAACA,0.0389 ± 0.011
7,UAGUGUGUCAGCUUCUCUGAGAGAUUAAGA,0.0667 ± 0.013
8,UAGUGUGUCACCUUCUGUGAGAGAUUAAGA,0.0204 ± 0.0087
9,UAGUGACAGACCUUCUCUGAGAGAUUUAACA,0.183 ± 0.018
10,UAGUGACACACCAACUCUGAGAGAUUAACA,0.054 ± 0.0049
11,UAGUGACUCACCUUCUCUGAAGAGAUUAACA,0.00273 ± 0.0024
12,UAGUCUGUCACGUUCUCUGAGAGAUUAUCA,0.0741 ± 0.0087
13,UAGUGACAGUGGUUCUCUGAGUGAUUAUCA,< 0.0001
14,UAGUGACAGUCGUACUCUGAGAGAUUAACA,0.0158 ± 0.0024
15,UAGUGACUCACGUUCUCUGAGAGAUUAUGA,0.00962 ± 0.0031
16,UAGUGAGUCACCUUCUCUGAGAGAGUUAACA,0.257 ± 0.044
17,UAGUGUGUCUCCUUCUCUGAGUGAUUAACA,0.00466 ± 0.003
18,UAGUGACACACCUUGAGUGAGAGAUUAACA,0.00938 ± 0.0042
19,UAGUGUGUCACCUUCACUGAGUGAUUAACA,0.00908 ± 0.004
20,UAGUGACAGUGGAAGUCUGAGAGAUAUUCA,< 0.0001
21,UAGUGACAGUCCUUCUCUGAGGAGAUUAACA,0.00431 ± 0.0026
22,UAGUGACUCAGCUACUCUGAGAGAUUAACA,0.0343 ± 0.0053
23,UAGUGACAGUGCUUCUCUGAGAGCUUAACA,0.0104 ± 0.0032
24,UAGUGAGUCACCUUCUCAGAGAGAUAAACA,0.0919 ± 0.025

row,Sequence,pre-steady-state target cleavage rate
1,UAGUGUGAGUCCUUCUCUGAGAGAUUAUGA,0.0046 ± 0.0039
2,UAGUGACACAACUUCUCUGAGAGAUUAACA,0.0327 ± 0.0051
3,UAGUGACUUACCUUCUCUGAGAGAUUAACA,0.0833 ± 0.0077
4,UAGUGACAGUGGAAGUCUGAGAGAGUUAACA,< 0.0001
5,UAGUGAGUCACCUUCACUGAGAGAAUAACA,0.0231 ± 0.0061
6,UAGUGACAGUGGUUCUCUGAGACAUUAACA,< 0.0001
7,UAGUGUCUCACGUUCUCUGAGAGAUUAACA,0.125 ± 0.012
8,UAGUGACUCACGUUCUCUGAGAGAAUAACA,0.0231 ± 0.0061
9,UAGUGACAGACCUUCUCUGAAAGAUUAACA,0.0466 ± 0.0079
10,UAGUGACUCACCUUCUGUGAGAGAUUUACA,0.0485 ± 0.009
11,UAGUGACAGUGCUUCUCUGGGAGAUUAACA,0.0267 ± 0.006
12,UAGUGACUCACCUUCACUGAGAGUUUAACA,0.0766 ± 0.021
13,UAGUGAGUCACCUUCUGUGAGAGAUUAACA,0.176 ± 0.011
14,UAGUGACUCACCUUCUCUGAGAGUAUAACA,0.0908 ± 0.015
15,UAGUGAGUUCACCUUCUCUGAGAGAUUAACA,0.184 ± 0.014
16,UAGUGACUCACCUUGUCUGAGAGAUUAUCA,0.0189 ± 0.011
17,UAGUGACUCACCUUCUCACAGAGAUUAACA,0.00519 ± 0.0034
18,UAGUGACAGUGGAACUCUGUCAGAUUAACA,< 0.0001
19,UAGUGACUCACCUUCUCUGAGAGAUUAAUA,0.0948 ± 0.022
20,UAGUCUGUCACCUUCUCAGAGAGAUAAACA,0.118 ± 0.026
21,UAGUCUGUCACCUUCUCUAGAGAUUAACA,0.0294 ± 0.01
22,UAGUGUGUGACCUUCUCUGACAGAUUAACA,0.0306 ± 0.0081
23,UAGUGACAGACCUUGACUGAGAGAUUAACA,0.0118 ± 0.0054
24,UAGUGACUCACCUUGUCUGAGAGAUUAACA,0.0996 ± 0.017
